Patent US20180057551A1 (AMYLONIX, published 2018)

Legend:
human Aβ1-40 peptide [1] = biological target: T1, human Aβ1-40 peptide (human, biotin at the C-terminus (flow cytometry, Examples 2-4) or at the N-terminus (SPR, ELISA); unlabeled plus Alexa488/Alexa647-labeled in FCS); assay: flow cytometry, on-cell off-rate ranking on S. carnosus: 25 nM biotinylated Aβ1-40, 100 nM unlabeled Aβ1-40 for 6 h; MFI of Aβ binding (FL-2) / MFI of surface expression (FL-6)
T1 construct: synthetic peptide (AnaSpec); one entry for all labelled forms, label named under assay; also called hAβ1-40; Aβ40

human Aβ1-40 peptide [2] = biological target: T1, human Aβ1-40 peptide; assay: SPR ProteOn XPR36, biotinylated Aβ1-40 on Neutravidin chip, 1:1 Langmuir

B1: ABPP054 displayed on S. carnosus, fused to ABP (designed binder)
chain: AGGEIVYFPNLNADQLCAFIRSLEDDPSQQANLLAEAKKLNDAQAPASSSSGSSSSGRASAGRERVYLPNLNAHQLCAFIRSLEDDPSQQANLLAEAKKLNDAQAPKKLLDALAKAKADALKEFNKYGVSDYYKNLINNAKTVEGVKDLQAQVVESAKKARISEATDGLSDFLKSQTPAEDTVKSIELAEAKVLANRELDKYGVSDYHKNLINNAKTVEGVKDLQAQVVESAKKARISEATDGLSDFLKSQTPAEDTVKSIELAEAKVLANRELDKYGVSDYYKNLINNAKTVEGVKALIDEILAALP
notes: pSCZ1 surface display
B1: binds (human Aβ1-40 peptide [1]).

B2: ABPP060 displayed on S. carnosus, fused to ABP (designed binder)
chain: AGGEIVYFPNLNADQLCAFIQSLEDDPSQQANLLAEAKKLNDAQAPASSSSGSSSSGRASAGRERVYLPNLNAHQLCAFIRSLEDDRSQQANLLAEAKKLNDAQAPKKLLDALAKAKADALKEFNKYGVSDYYKNLINNAKTVEGVKDLQAQVVESAKKARISEATDGLSDFLKSQTPAEDTVKSIELAEAKVLANRELDKYGVSDYHKNLINNAKTVEGVKDLQAQVVESAKKARISEATDGLSDFLKSQTPAEDTVKSIELAEAKVLANRELDKYGVSDYYKNLINNAKTVEGVKALIDEILAALP
notes: pSCZ1 surface display
B2: binds (human Aβ1-40 peptide [1]).

B3: ABPP061 displayed on S. carnosus, fused to ABP (designed binder)
chain: AGGERVYLPNLNADQLCAFIRSLEDDPSQSANLLAEAKKLNDAQAPASSSSGSSSSGRASAGGEIVYFPNLNAHQLCAFIRSLEDDPSQSANLLAEAKKLNDAQAPKKLLDALAKAKADALKEFNKYGVSDYYKNLINNAKTVEGVKDLQAQVVESAKKARISEATDGLSDFLKSQTPAEDTVKSIELAEAKVLANRELDKYGVSDYHKNLINNAKTVEGVKDLQAQVVESAKKARISEATDGLSDFLKSQTPAEDTVKSIELAEAKVLANRELDKYGVSDYYKNLINNAKTVEGVKALIDEILAALP
notes: pSCZ1 surface display
B3: binds (human Aβ1-40 peptide [1]).

B4: ABPP062 displayed on S. carnosus, fused to ABP (designed binder)
chain: AGGERVYLPNLNADQLCAFIQSLEDDPSQSANLLAEAKKLNDAQAPASSSSGSSSSGRASAGGEIVYFPNLNAHQLCAFINSLEDDPSQSANLLAEAKKLNDAQAPKKLLDALAKAKADALKEFNKYGVSDYYKNLINNAKTVEGVKDLQAQVVESAKKARISEATDGLSDFLKSQTPAEDTVKSIELAEAKVLANRELDKYGVSDYHKNLINNAKTVEGVKDLQAQVVESAKKARISEATDGLSDFLKSQTPAEDTVKSIELAEAKVLANRELDKYGVSDYYKNLINNAKTVEGVKALIDEILAALP
notes: pSCZ1 surface display
B4: binds (human Aβ1-40 peptide [1]).

B5: ABPP070 displayed on S. carnosus, fused to ABP (designed binder)
chain: AGRERVYLPNLNADQLCAFIRSLEDDPSQSANLLAEAKKLNDAQAPASSSSGSSSSGRASAGGERVYLPNLNADQLCAFIQSLEDDPSQSANLLAEAKKLNDAQAPKKLLDALAKAKADALKEFNKYGVSDYYKNLINNAKTVEGVKDLQAQVVESAKKARISEATDGLSDFLKSQTPAEDTVKSIELAEAKVLANRELDKYGVSDYHKNLINNAKTVEGVKDLQAQVVESAKKARISEATDGLSDFLKSQTPAEDTVKSIELAEAKVLANRELDKYGVSDYYKNLINNAKTVEGVKALIDEILAALP
notes: pSCZ1 surface display
B5: binds (human Aβ1-40 peptide [1]).

B6: ABPP018 displayed on S. carnosus, fused to ABP (designed binder)
chain: AGGEIVYFPNLNADQLCAFIRSLEDDPSQQANLLAEAKKLNDAQAPASSSSGSSSSGSSSSGRASAGRERVYLPNLNADQLCAFIRSLEDDQSQRANLLAEAKKLNDAQAPKKLLDALAKAKADALKEFNKYGVSDYYKNLINNAKTVEGVKDLQAQVVESAKKARISEATDGLSDFLKSQTPAEDTVKSIELAEAKVLANRELDKYGVSDYHKNLINNAKTVEGVKDLQAQVVESAKKARISEATDGLSDFLKSQTPAEDTVKSIELAEAKVLANRELDKYGVSDYYKNLINNAKTVEGVKALIDEILAALP
notes: pSCZ1 surface display
B6: binds (human Aβ1-40 peptide [1]).

B7: ABPP028 with C-terminal His6 tag (designed binder)
chain: AGGEIVYLPNLNAHQLCAFIQSLEDDPSQQANLLAEAKKLNDAQAPASSSSGSSSSGRASAGRERVYLPNLNAHQLCAFIQSLEDDPSQSANLLAEAKKLNDAQAPKHHHHHH
In the case of B7, the Kd (human Aβ1-40 peptide [2]) is reported as 1.02 nM, the koff (human Aβ1-40 peptide [2]) is reported as 9e-05 s⁻¹ and the kon (human Aβ1-40 peptide [2]) is reported as 88000 M⁻¹ s⁻¹.
